According to the supplement of paper PMC11417369:
Some of the results follow.

test system: PfAP2-HC AP2 domain (GST-tagged); assay: gcPBM binding intensity (ln(normalized median fluorescence intensity)); higher = stronger DNA binding
Procedure, shortened: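 Binding intensity values are the highest Masliner-normalised natural-log median intensity among replicate spots of either probe orientation. The binding step lasted 1 h in 1× PBS with 1% milk, 0.2 mg/ml BSA, 0.5% salmon testes DNA and 0.03% Triton X-100, using GST-tagged P. falciparum DNA-binding domains expressed in E. coli on an Agilent 4 × 180k array of primer-extended double-stranded 36-bp intergenic genomic probes plus negative controls. Alexa488 anti-GST antibody and a 488 nm scan detected bound protein.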

Sequence	gcPBM binding intensity (ln)
ACAGTATCTGGTAGCTGTACGAGTCGTAGAGTGCAG [XGTACX_site2015]	9.78
GGTAAGTACGACTTGACACACATACCCATATATATA [CACACA_site4837]	9.89
GCGAAATATTATTATAGTATACAAATACTTCTATGA [CACACA_negctrl_site197]	9.51
GGTGTTAAAAAATACACACACAAAAAAAAAAAAAAA [CACACA_site138]	9.66
TAACTTGAATGGATATGTACATATATATATATATAT [XGTACX_site5990]	10
ATTCATCTATTTTGTAGTACTAAATATATATCTACT [XGTACX_site8790]	9.84
AATAAACATATATACACACACAAAAAAAAAAACATA [CACACA_site424]	10.4
TAGATGTATGTACATACACACATATATAAATAAATA [CACACA_site1788]	9.99
TACCTAGGATTAAAGTGTCCACATAATTTAAATAAT [XGTACX_site6736]	9.44
TTCTTCTGTTTTATTACACACCATTTTGTGGATACA [CACACA_site5181]	9.96
TATATAAATAGACACACACACATATAAATATAAATA [CACACA_site6503]	10.4
TTTTTTATTATATAATTGTATATAAAATTATAATTT [GTGCAC_negctrl_site733]	9.4
GAATGTATATTCATGTATTTATTATTATTATTATTA [XGTACX_negctrl_site156]	9.31
TCGGGAGGGGGGAAGCGTACATATATAAAATTATTA [XGTACX_site4683]	10.1
TATAACAAGTTATAAAGTACAAATGTTGAATTTTAT [XGTACX_site4673]	9.65
TAAAAATTAATATAAACACACAAAAATTAATAAATA [CACACA_site381]	9.94
TATAGATACAGATACACACACACACCGACATATATA [CACACA_site5832]	10.7
ATATGCCTAATAAAATGTACGTTTGTTTTATTTATT [XGTACX_site3833]	9.77
ATATATATATTTTGGTAGCACCTCCTTTTTTTTTTT	9.68

Sequence	gcPBM binding intensity (ln)
ATATGGCTAAAAGTTGCACACACACTAATAAAAAAA [CACACA_site9082]	10.1
TATGTATTTATATTAACACACAAAAAAAAAAAAAAA [CACACA_site5070]	9.54
ATTATTTTACTAAAAGATATTCCTTTTTTTTGTACT [CACACA_negctrl_site998]	9.62
ATATGCATTTTTATACGTACATATTTCTTTTCGTTA [XGTACX_site1497]	9.92
TGTTTTATTTAGAAGGTGCACATTAATATTAAATAA	9.53
ACAAAAGGGGAATACACACACATATATAAATAAATA [CACACA_site7111]	10.5
CATATTTTTATGAGATGTACAATAAGAAATATGTAA [XGTACX_site2389]	9.57
AACAGGTCATAATTTACACACTATATATCTTATTAT [CACACA_site6461]	10.1
TTCATAAGAAGGAACTGTACATATTTTTCATTTTTT [XGTACX_site6770]	9.61
TGTATACCTTAATATACACACATACAGATATATATA [CACACA_site4860]	9.71
CGATTTTTTTTTTATTGTACTTGCTCGCATGCAATA [XGTACX_site4727]	9.51
TTATATGTATATATATGTATATATATATATATATAG [TGCATGCA_negctrl_site461]	9.61
TACAATCTTTCATTATGTACTTAACATTTTTTCTGT [XGTACX_site8752]	9.89
CATACAGATGGACACACACACACACCCACAGACAAA [CACACA_site4431]	10.5
TTTTTTTTTTGATGCACACACCTGAACGAGTTAATA [CACACA_site4329]	9.99
TTATCCTTGTAACAATGTACACATTATTTAATACTT [XGTACX_site1830]	9.78
TCGTGAATGATTTAAGTACACACCGGTATTTATTCA [CACACA_site1564]	9.77
GCATAAACGGATAATTAATTATATTATATTATATCA [CACACA_negctrl_site1519]	9.62
ATTTATTTATATATATTATTTGTTTTAATTTACTTA [XGTACX_negctrl_site246]	9.67

Sequence	gcPBM binding intensity (ln)
TATTGTTGTCTTTACACATGCAACAAAAGAAGAAAA [TGCATGCA_site911]	9.63
TATTCTAATATTTATACACACATAACTTTGATAAAT [CACACA_site6418]	9.66
TATATATAGCATATTTCACACACACCGAATGAATAT [CACACA_site9182]	10.3
ATTAATTATTGTAATTGTACATTTTATATATATCCA [XGTACX_site2105]	9.58
TTTCTTGGGAGACATGCATGTACCAGAACAAAATAA [TGCATGCA_site272]	9.54
CACCCATAGAAACACACACACGCATAAAAAAAAAAA [CACACA_site1513]	10.7
TAAAAACAAAAATGCACACATAATAAGCATATGTAT [CACACA_site3469]	9.92
TTTATTTTTATGGTCACACATATTTTTAAAACTATA [CACACA_site4372]	9.77
TACAAAATAGTTTACACACACATATATATACATATA [CACACA_site2615]	9.95
TTTTTTTTTTTATATACTGGAAATATATTTAATTTA [GTGCAC_negctrl_site250]	9.46
CTTTCCTATTTGACACGTACGAAATTTTACATAAAA [XGTACX_site6689]	9.42
AAATATATATACACATATATATATATATATATATAT [CACACA_negctrl_site1742]	9.72
TATGAAATATCGTGCACACACGAATAATATAAGAAT [CACACA_site4842]	9.93
AAAATAAAAAATATAACACACAATAAATATTTATAT [CACACA_site6986]	10.1
ACATGAAATGTTTAAAGTACATATATAAATTTTTTT [XGTACX_site4519]	9.54
ATATATAGATAATCAAGTACATAACAAGATATAAGA [XGTACX_site2186]	9.79
TACTGATCTTTCTAGGTGCGCTGCTACCATTATCGT [GTGCAC_site9538]	9.65
AAATGTGAAGTGAATACACACCTAATAAATATAACA [CACACA_site5727]	9.77
